# According to patent US20150045291A1, “LIPOPEPTIDE CONJUGATES COMPRISING SPHINGOLIPID AND HIV GP41 DERIVED PEPTIDES” (priority 2012, published 2015):
# Starred links: 1 amine or outer side, 2 acyl side, 3 side chain; linkers in the order of their positions; H or OH if unused. Non-standard residues stand in square brackets, D forms with d. Residues, ends and D or L forms follow the SMILES beside them. Groups on a side chain read outwards from the residue. *: point of attachment. Sphinganine = CCCCCCCCCCCCCCC[C@@H](O)[C@H](CO)N*; CO = O=C([*:1])[*:2]
# System: HIV-1 envelope mediated cell-cell fusion (TZM-bl target cells and HL 2/3 effector cells)
# Details: cell-cell fusion system, TZM-bl target cells and HL 2/3 effector cells (footnote d)
# Description: Cell-cell fusion assay. Effector cells were the ENV expressing cells HL2-3, a Hela derived cell-line which constitutively expresses the HXB2 strain of the HIV-1 ENV glycoprotein along the Tat protein, and as target cells, TZM-bl cells were used. The fusion of HL2-3 cells with TZM-bl cells was assessed through luciferase expression. The TZM-bl cells were seeded at 2×10^4 cells/well overnight in a 96 well plates. […] The cells were cocultured at 37° C. for 6 hours to allow the fusion to occur.
smiles,measurement,value
"CCCCCCCCCCCCCCC[C@@H](O)[C@H](CO)NC(=O)NCCCC[C@H](NC(=O)[C@@H](NC(=O)[C@H](CCC(=O)O)NC(=O)[C@H](CCCNC(=N)N)NC(=O)[C@H](CC(=O)O)NC(=O)[C@@H](Cc1c[nH]c2ccccc12)NC(=O)[C@@H](CCC(=O)O)NC(=O)[C@H](CCSC)NC(=O)[C@@H](Cc1c[nH]c2ccccc12)NC(=O)[C@@H](N)[C@@H](C)CC)[C@@H](C)CC)C(N)=O [D-peptide-sphing, IwMewDREIK-Sphinganine] (H-I[dW]M[dE][dW]DREIK([CO-Sphinganine])-NH2; N-terminus assumed)",IC50,288 ± 156 nM
same,IC90,2670 ± 540 nM
